We go through 30 compounds from the supplement of paper PMC4604168 (melanoma cell lines).

The list shows a part of the results. Most values come without repeats; read them as rough.

Test systems include 501Mel; A101D; A2058; A375.
Holding throughout (assay): cell count relative to DMSO control; melanoma cells; higher = more viable cells
What all share (details): library dose: standard library concentration; 72 h
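Also: cells treated in 1,536-well plates, then fixed and DAPI-stained, with nuclei counted from automated high-throughput microscope images.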

`C[C@]1(c2nc3c(C(N)=O)cccc3[nH]2)CCCN1` [Veliparib] + Oc1nc(-c2ccc(C(F)(F)F)cc2)nc2c1CSCC2 [XAV939] (first compound 7 µM, partner dose 10 µM): the cell count was 119% in the experiment with 501Mel, 66.8% with A101D, 59.9% in the experiment on A2058 and 98.1% in the experiment on A375.

As for `C=CCn1c(=O)c2cnc(Nc3ccc(N4CCN(C)CC4)cc3)nc2n1-c1cccc(C(C)(C)O)n1` + O=S(=O)(c1ccccc1)N(CC(F)(F)F)c1ccc(C(O)(C(F)(F)F)C(F)(F)F)cc1 [T0901317] (first compound 0.1 µM, partner dose 7 µM), the cell count with 501Mel is 42.9%; with A101D, 74.6%; with A2058, 84.4%; in the experiment with A375, 62.5%.

Turning to `OCCn1cc(-c2cnc3nnn(Cc4ccc5ncccc5c4)c3n2)cn1` + O=c1cc(-c2cccc3c2Sc2ccccc2S3)oc(N2CCOCC2)c1 [KU55933] (first compound 5 µM, partner dose 5 µM), the cell count was determined as 114% in the experiment with 501Mel, 112% in the experiment with A101D, 96.5% in the experiment on A2058 and 96.7% with A375.

In the case of `NC(=O)Nc1cc(-c2cccc(F)c2)sc1C(=O)N[C@H]1CCCNC1` + O=C(O)C(=O)Nc1sc2c(c1C(=O)O)CCNC2 [TCS401] (first compound 0.1 µM, partner dose 8.33333 µM), the cell count came to 83% in the experiment on 501Mel, 63.1% in the experiment with A101D, 86.2% with A2058 and 58.3% in the experiment with A375.

For `OCCn1cc(-c2cnc3nnn(Cc4ccc5ncccc5c4)c3n2)cn1` + Oc1cc(-c2nc(-c3ccccc3)[nH]c2-c2ccncc2)ccc1Cl [L779450] (first compound 5 µM, partner dose 1 µM), the cell count in the experiment with 501Mel is 84.8%; in the experiment with A101D, 70.8%; in the experiment on A2058, 94.8%; with A375, 91.8%.

On to `Cc1nc(Nc2ncc(C(=O)Nc3c(C)cccc3Cl)s2)cc(N2CCN(CCO)CC2)n1` [dasatanib] + NC(=O)Nc1cc(-c2cccc(F)c2)sc1C(=O)N[C@H]1CCCNC1 [AZD7762] (first compound 0.02 µM, partner dose 0.1 µM), for which the cell count was 39.2% in the experiment on A101D, 30.5% with A2058 and 49.4% in the experiment on A375.

Turning to `C=CCn1c(=O)c2cnc(Nc3ccc(N4CCN(C)CC4)cc3)nc2n1-c1cccc(C(C)(C)O)n1` + CN(C)S(=O)(=O)c1ccc2c(c1)/C(=C/c1cc3c([nH]1)CCCC3)C(=O)N2 [SU6656] (first compound 0.1 µM, partner dose 2 µM), the cell count with A101D came to 55.6%; in the experiment with A2058, 80.7%; with A375, 78.5%.

Turning to `C[C@]1(c2nc3c(C(N)=O)cccc3[nH]2)CCCN1` [Veliparib] + CN(C)S(=O)(=O)c1ccc2c(c1)/C(=C/c1cc3c([nH]1)CCCC3)C(=O)N2 [SU6656] (first compound 7 µM, partner dose 2 µM), the cell count was determined as 63.6% in the experiment with A101D, 55.1% with A2058 and 131% in the experiment on A375.

On to `C[C@]1(c2nc3c(C(N)=O)cccc3[nH]2)CCCN1` [Veliparib] + COc1cc(Nc2ncc(F)c(Nc3ccc4c(n3)NC(=O)C(C)(C)O4)n2)cc(OC)c1OC [Tamatinib] (first compound 7 µM, partner dose 2 µM), for which the cell count in the experiment with A101D amounted to 32.4%; with A2058, 67.5%; with A375 it was 81.1%.

As to `Cc1nc(Nc2ncc(C(=O)Nc3c(C)cccc3Cl)s2)cc(N2CCN(CCO)CC2)n1` [dasatanib] + Nc1cccc2c1CN(C1CCC(=O)NC1=O)C2=O [lenalidomide] (first compound 0.02 µM, partner dose 5 µM), the figures for the cell count in the experiment with A101D, in the experiment on A2058 and in the experiment on A375 were 86.7%, 75.4% and 53.8%, respectively.

`Cc1nc(Nc2ncc(C(=O)Nc3c(C)cccc3Cl)s2)cc(N2CCN(CCO)CC2)n1` [dasatanib] + Cn1cncc1[C@@](N)(c1ccc(Cl)cc1)c1ccc2c(c1)c(-c1cccc(Cl)c1)cc(=O)n2C [tipifarnib] (first compound 0.02 µM, partner dose 0.05 µM): the cell count in the experiment on A101D came to 54.4%; in the experiment on A2058, 72.4%; with A375, 70%.

With `C=CCn1c(=O)c2cnc(Nc3ccc(N4CCN(C)CC4)cc3)nc2n1-c1cccc(C(C)(C)O)n1` + COc1ccc2c(c1)CCC1C2CCC2(C)C(NCCCCCCN3C(=O)C=CC3=O)CCC12 [U73122] (first compound 0.1 µM, partner dose 2 µM), the cell count with 501Mel is 70.5%; in the experiment on A101D, 38.3%; with A2058 it was 63.8%; in the experiment with A375 it was 41.2%.

For the compound `NC(=O)Nc1cc(-c2cccc(F)c2)sc1C(=O)N[C@H]1CCCNC1` + CN(NC(=O)CC(=O)NN(C)C(=S)c1ccccc1)C(=S)c1ccccc1 [STA4783] (first compound 0.1 µM, partner dose 0.03 µM), the cell count came out at 46% with A101D, 8.8% in the experiment on A2058 and 61.3% in the experiment with A375.

For `Cc1nc(Nc2ncc(C(=O)Nc3c(C)cccc3Cl)s2)cc(N2CCN(CCO)CC2)n1` [dasatanib] + c1cc(-c2cnn3cc(-c4ccc(OCCN5CCCCC5)cc4)cnc23)ccn1 [Dorsomorphin] (first compound 0.02 µM, partner dose 2 µM), the cell count with 501Mel was determined as 56.2%; in the experiment on A101D, 62.4%; with A2058 it was 59.2%; in the experiment on A375, 53%.

As to `CN(C)S(=O)(=O)c1ccc2c(c1)/C(=C/c1cc3c([nH]1)CCCC3)C(=O)N2` + O=C(Nc1ccccc1)c1cc([N+](=O)[O-])ccc1Cl [GW9662] (first compound 2 µM, partner dose 10 µM), the cell count with 501Mel is 60.9%; in the experiment on A101D, 60.7%; with A2058 it was 76.9%; in the experiment on A375, 172%.

On to `NC(=O)Nc1cc(-c2cccc(F)c2)sc1C(=O)N[C@H]1CCCNC1` + OCCn1cc(-c2cnc3nnn(Cc4ccc5ncccc5c4)c3n2)cn1 [PF04217903] (first compound 0.1 µM, partner dose 5 µM), for which the cell count with A101D is 71.3%; with A2058, 135%; with A375, 62.2%.

As to `CO[C@@H]1[C@H](N(C)C(=O)c2ccccc2)C[C@H]2O[C@]1(C)n1c3ccccc3c3c4c(c5c6ccccc6n2c5c31)C(=O)NC4` [Midostaurin] + COc1cc2c(Oc3ccc4[nH]c(C)cc4c3F)ncnc2cc1OCCCN1CCCC1 [cediranib] (first compound 0.4 µM, partner dose 2 µM), the figures for the cell count with A101D, in the experiment on A2058 and in the experiment on A375 were 83.8%, 86.8% and 71.3%, respectively.

For the compound `Cc1nc(Nc2ncc(C(=O)Nc3c(C)cccc3Cl)s2)cc(N2CCN(CCO)CC2)n1` [dasatanib] + C[C@]1(c2nc3c(C(N)=O)cccc3[nH]2)CCCN1 [Veliparib] (first compound 0.02 µM, partner dose 7 µM), the cell count in the experiment on A101D was determined as 70%; in the experiment with A2058, 55%; in the experiment on A375 it was 72.5%.

Regarding `NC(=O)Nc1cc(-c2cccc(F)c2)sc1C(=O)N[C@H]1CCCNC1` + O=C1NC(=O)/C(=C/c2ccc(-c3ccc(F)cc3O)o2)S1 [AS252424] (first compound 0.1 µM, partner dose 5 µM), the cell count in the experiment on 501Mel amounted to 89.8%; in the experiment on A101D, 83.9%; in the experiment with A2058, 105%; in the experiment on A375, 56.3%.

On to `NC(=O)Nc1cc(-c2cccc(F)c2)sc1C(=O)N[C@H]1CCCNC1` + Cn1cc(/C=C2\C(=O)Nc3cccnc32)c2ccccc21 [GW441756] (first compound 0.1 µM, partner dose 2 µM), for which the cell count in the experiment with 501Mel was found to be 79%; in the experiment on A101D, 71.7%; in the experiment on A2058, 112%; in the experiment with A375, 34.2%.

On to `C[C@]1(c2nc3c(C(N)=O)cccc3[nH]2)CCCN1` [Veliparib] + CN(NC(=O)CC(=O)NN(C)C(=S)c1ccccc1)C(=S)c1ccccc1 [STA4783] (first compound 7 µM, partner dose 0.03 µM), for which the cell count in the experiment on A101D amounted to 49.9%; in the experiment on A2058, 13.6%; in the experiment with A375, 96.2%.

Turning to `C[C@]1(c2nc3c(C(N)=O)cccc3[nH]2)CCCN1` [Veliparib] + COc1cc2c(Oc3ccc4[nH]c(C)cc4c3F)ncnc2cc1OCCCN1CCCC1 [cediranib] (first compound 7 µM, partner dose 2 µM), the results for the cell count in the experiment with A101D, with A2058 and in the experiment on A375 were 61%, 62.9% and 134%, respectively.

Consider `NCC(=O)Nc1ccc(-n2nc(C(F)(F)F)cc2-c2ccc3c(ccc4ccccc43)c2)cc1` + O=C(O)C(=O)Nc1sc2c(c1C(=O)O)CCNC2 [TCS401] (first compound 5 µM, partner dose 8.33333 µM), for which the cell count with 501Mel worked out at 9.38%; in the experiment with A101D, 30.5%; in the experiment with A2058, 106%; with A375, 73%.

As for `C[C@]1(c2nc3c(C(N)=O)cccc3[nH]2)CCCN1` [Veliparib] + C[C@@H]1CCN(C(=O)CC#N)C[C@@H]1N(C)c1ncnc2[nH]ccc12 [CP690550] (first compound 7 µM, partner dose 5 µM), the cell count in the experiment with A101D stood at 82.1%; with A2058 it was 81.1%; with A375 it was 113%.

For `CN(C)S(=O)(=O)c1ccc2c(c1)/C(=C/c1cc3c([nH]1)CCCC3)C(=O)N2` + CCc1ccc(CCOc2ccc(CC3SC(=O)NC3=O)cc2)nc1 [pioglitazone] (first compound 2 µM, partner dose 10 µM), the cell count in the experiment with 501Mel was determined as 67%; with A101D it was 88%; in the experiment on A2058, 87.9%; in the experiment with A375 it was 171%.

In the case of `C=CCn1c(=O)c2cnc(Nc3ccc(N4CCN(C)CC4)cc3)nc2n1-c1cccc(C(C)(C)O)n1` + O=C(Nc1ccccc1)c1cc([N+](=O)[O-])ccc1Cl [GW9662] (first compound 0.1 µM, partner dose 10 µM), the cell count with 501Mel amounted to 67.9%; in the experiment with A101D, 45.1%; in the experiment with A2058, 107%; in the experiment with A375, 80%.

As to `OCCn1cc(-c2cnc3nnn(Cc4ccc5ncccc5c4)c3n2)cn1` + Cn1cc(/C=C2\C(=O)Nc3cccnc32)c2ccccc21 [GW441756] (first compound 5 µM, partner dose 2 µM), the cell count with 501Mel stood at 115%; in the experiment with A101D it was 110%; in the experiment on A2058 it was 97.7%; in the experiment on A375 it was 132%.

With `C[C@]1(c2nc3c(C(N)=O)cccc3[nH]2)CCCN1` [Veliparib] + NCC(=O)Nc1ccc(-n2nc(C(F)(F)F)cc2-c2ccc3c(ccc4ccccc43)c2)cc1 [OSU03012] (first compound 7 µM, partner dose 5 µM), the cell count with A101D stood at 83.9%; in the experiment on A2058, 84.5%; in the experiment on A375, 71.5%.

`Cc1nc(Nc2ncc(C(=O)Nc3c(C)cccc3Cl)s2)cc(N2CCN(CCO)CC2)n1` [dasatanib] + C=CCn1c(=O)c2cnc(Nc3ccc(N4CCN(C)CC4)cc3)nc2n1-c1cccc(C(C)(C)O)n1 [MK1775] (first compound 0.02 µM, partner dose 0.1 µM): the figures for the cell count in the experiment on A101D, in the experiment with A2058 and with A375 were 47.7%, 57.3% and 54.2%, respectively.

In the case of `C[C@]1(c2nc3c(C(N)=O)cccc3[nH]2)CCCN1` [Veliparib] + Cc1ccc(NC(=O)c2cccc(N(C)C)c2)cc1NC(=O)c1ccc(O)cc1 [ZM336372] (first compound 7 µM, partner dose 10 µM), the figures for the cell count in the experiment with A101D, with A2058 and with A375 were 68.6%, 76.5% and 109%, respectively.
